According to PMC12136788:
The list shows a part of the results.

B1: chr9:19286831:19286940:+|CDS|ENSG00000137145|unk|total|mutant (ssRNA)
RNA: GGGAGUUCUACAGUCCGACGAUCAUUCCAGGAUGUGAAGUGAUCCCCGCCACACCCUAUGGUCGCUGUGCCAAUGUCAACAACCGUUCAACUACUUCACAAAGAAUCUUUAUCACUUAUCGAAGGGCUCCUCCAGUUCGACCCCAACAGAGGAUUGAGCAUCA
B2: chr5:95604386:95604487:+|3pUTR|ENSG00000164291|msi1|total|mutant (ssRNA)
RNA: GGGAGUUCUACAGUCCGACGAUCCCUGCCAUCCAGUUCCCCCUCCAAGAAGCAAGUACCGAAACCACCUGCUUACGCAUUUUCCGAGAUUGGCCACAAAUUUAUAAACAAAUGUAUAUAUUCCUUUCCCCCUACACAAACGGUCAACAGAGGAUUGAGCAUCA
B3: chr4:143221337:143221438:+|3pUTR|ENSG00000170185|unk|FALSE|unique (ssRNA)
RNA: GGGAGUUCUACAGUCCGACGAUCUUGAAAGGUAAUAGAUUUUCCAGAAGUAAAAUCUGAUGGUUCUAAAUCAAUCAAUGUGAUAGUUCAUUUUUAACUCUUAGAAGAAUUCAGAGGAAAUUAACCCAGCUAAGUAAAAAAUCUCAACAGAGGAUUGAGCAUCA
B4: ENSG00000198589:be:win_2051|CDS|ENSG00000198589|bound_else_gene|NA|bound_elsewhere_windowed (ssRNA)
RNA: GGGAGUUCUACAGUCCGACGAUCUACUGACUAUGCAUGAGGAUGACAAUCUAAUGGAUGUCCUACAGCUGCUUGUUGCAUUAAUGUCAGAACACCCUAACUCUAUGAUUCCUGCUUUUGACCAAAGGAAUGGGUUACGUGUUACAACAGAGGAUUGAGCAUCA
B5: chr5:138511037:138511180:-|CDS|ENSG00000120705|unk|total|mutant (ssRNA)
RNA: GGGAGUUCUACAGUCCGACGAUCCACGGGCAAGUACUGUUUUGGCGUUGAAGAUACACUAAAGGCUUUGGAAAUGGGAGCUGCCGAAAUUCUAACCGUCUAUGAAAAUCUGGAUAUAAUGAGAUAUGUUCUUCAUUGCCAAGGCAACAGAGGAUUGAGCAUCA
B6: chr2:16549458:16552935:-|three_prime_utr|ENSG00000197872|control|control|control (ssRNA)
RNA: GGGAGUUCUACAGUCCGACGAUCUUGCUACUGGAGUCCUUUAACAACAUCUAUAACGAUAAAAAAUUCCUAAUUGUUUGUGGUAGUAUUUUAAUUCUAGAUGUGUUAUCUCUCUGGGAAGUAUAGUUUAUAGAAACACAAAAUCAACAGAGGAUUGAGCAUCA
B7: chr10:58277235:58277315:+|CDS|ENSG00000122873|msi1_unk|total|mutant (ssRNA)
RNA: GGGAGUUCUACAGUCCGACGAUCUAAAGAUCAUCGAAAUAAAGCUAUGAUAAACCUUCACAUCCAGAAAGACAACCCCAAGACCGUACAUGCUUUUGACAUGGAGGAUUUGGGAGAUAAAGCUGUGUACUGCCGUUGUUGGAGCAACAGAGGAUUGAGCAUCA
B8: chr6:11183298:11183399:-|3pUTR|ENSG00000111859|msi1|total|mutant (ssRNA)
RNA: GGGAGUUCUACAGUCCGACGAUCACAUUUCACAUUUUUAAAACCAAAUGUUCAAUCUGUAUUACUCUUUGCCGUCUUGUAUGCCGAGGCUAUUUUUAAAUCAUUAAAUUUUCCGAUCUCUGUUUUCACCGCCACUGGGUUUUCCAACAGAGGAUUGAGCAUCA
B9: chr1:193096648:193096749:-|CDS|ENSG00000023572|msi1_unk|total|mutant (ssRNA)
RNA: GGGAGUUCUACAGUCCGACGAUCCAACAGGUUCCAAGAAUAUUUGUCAAUGGUACUUUUAUUGGAGGUGCAACUGACACUCACCGGCUUCACAAAGAAGGAAAAUUGCUCCCACCCGUUCAUCAGUGUUAUUUAAAAAAAAGUCAACAGAGGAUUGAGCAUCA
B10: ENSG00000124766:be:win_3151|3pUTR|ENSG00000124766|bound_else_gene|NA|bound_elsewhere_windowed (ssRNA)
RNA: GGGAGUUCUACAGUCCGACGAUCUUUCUCAGUGUAUUUUUGUAAAAAAUAUAUAAAGGGGGUGUUAAUCGGUGUAAAUCGCUGUUUGGAUUUCCUGAUUUUAUAACAGGGCGGCUGGUUAAUAUCUCACACAGUUUAAAAAAUCAACAGAGGAUUGAGCAUCA
B11: chr19:50958630:50959316:-|three_prime_utr|ENSG00000167755|control|control|control (ssRNA)
RNA: GGGAGUUCUACAGUCCGACGAUCAUGUGACAUCUACCUCCCGACCUACCACCCCACUGGCUGGUUCCAGAACGUCUCUCACCUAGACCUUGCCUCCCCUCCUCUCCUGCCCAGCUCUGACCCUGAUGCUUAAUAAACGCAGCGCAACAGAGGAUUGAGCAUCA
B12: chr4:52598568:52598706:-|three_prime_utr|ENSG00000109189|control|control|control (ssRNA)
RNA: GGGAGUUCUACAGUCCGACGAUCGCAUUAUAUCACUAUUGUGAAAAGUCACGGCUUCUGGCUUUUGUUUGAUGAUGACAUUGUAGAGGUUGGUUUGCAGAUUAUUCUCCAGUAGUCAUAGAGCAUCAGUAGUAUUUCGGAGAACAACAGAGGAUUGAGCAUCA
B13: ENSG00000198589:be:win_4851|CDS|ENSG00000198589|bound_else_gene|NA|bound_elsewhere_windowed (ssRNA)
RNA: GGGAGUUCUACAGUCCGACGAUCCCAUGUGGAAGUAACUCCUCACACAGCACCUCCUGGUGUCAGUGCAGGCCCAGAUGCAAUCAGCGAGGUGCUAUCUACUCUUUCUUUAGAAGUCAAUAAGUCUCCGGAAACCAAAAAUGACAACAGAGGAUUGAGCAUCA
B14: chr19:38730201:38730298:+|3pUTR|ENSG00000130402|msi1_unk|total|mutant (ssRNA)
RNA: GGGAGUUCUACAGUCCGACGAUCCAGAGAAUUACUAUUUACUUUAUUAACUUACGGAUUUAUUAUAUAAAUAUAUAUUCACCCCGCAACAUAUCUCUGCCGUCUCUCCUGCUCUCAUAAUGAAGACACCGCCGAUUCUCUGCCCAACAGAGGAUUGAGCAUCA
B15: chr9:113042727:113044268:-|CDS|ENSG00000136866|control|control|control (ssRNA)
RNA: GGGAGUUCUACAGUCCGACGAUCCAUCAGAGAGUUCAUACUGGAGAGAAACCGUAUGAGUGUAAUGAAUGUGGGAAAGCCUUUAGCCAAAAGUCUCACCUCAUUGUACAUCAGAGAACUCAUACUGGGGAGAAACCUUAUGAACAACAGAGGAUUGAGCAUCA
B16: chr3:196319341:196319897:-|three_prime_utr|ENSG00000145107|control|control|control (ssRNA)
RNA: GGGAGUUCUACAGUCCGACGAUCAUCACAGGUGCGAGUCACCGUGCCUGGCCAACUAAUGAAAAGUUUAAAGAAUUUAUAUCUAGUUUUGGAUGUUAGGCAUGCACACACAAGUGCAUGCACACUCAUACACAUCAUCUCCACCAACAGAGGAUUGAGCAUCA
B17: chr7:100033925:100034026:+|CDS|ENSG00000106261|msi1|FALSE|bound_elsewhere (ssRNA)
RNA: GGGAGUUCUACAGUCCGACGAUCCAGAGCUCGGACCUCACCAAGCAUCAGAGAAUUCACACGGGGGAGAAACCCUAUGAAUGUAGUGAAUGUGGAAAAGCUUUCAACCGAAACUCAUACCUGAUUUUGCAUCGGAGAAUUCACCAACAGAGGAUUGAGCAUCA
B18: chr14:23275577:23277187:-|CDS|ENSG00000290292|control|control|control (ssRNA)
RNA: GGGAGUUCUACAGUCCGACGAUCGCAGGUGCUGGAUUGGUUUGACUCUCGAUUACCUCAGCCAGCUGAGGUGGUAGUUUGUCUAGAUGAAGAAGAGGAAGAGGAGGAGGAAGAACUGCCAGAAGAUGAUGAGGAAGAGGAGGACAACAGAGGAUUGAGCAUCA
B19: chr14:102081487:102081564:-|3pUTR|ENSG00000080824|msi1_unk|total|mutant (ssRNA)
RNA: GGGAGUUCUACAGUCCGACGAUCGAAGAUAAGAUUUCUGUCUACUAAGUGAUGCUGUGAUACCUCCGGCACUAAAGCAGAGCCCGUAAUGCUUUUUGAGUUUCAUGUUGGUUUAUUUUCACAGAUUGGGGUAACGUGCACUGUCAACAGAGGAUUGAGCAUCA
B20: ENSG00000136935:stop:overlap|stop_codon|ENSG00000136935|stop_codon|NA|stop_codon (ssRNA)
RNA: GGGAGUUCUACAGUCCGACGAUCAACCAGCUCCCAAGGGCAGCAUCCGGCCGUCUAUCUCAAACCCUCGGAUACCAUGGUCCUAGAGGGGACUACCCAAGGAUGGAGCUCCGUGGGUUGACACUUUUUCUGUGAAAAGAACACCAACAGAGGAUUGAGCAUCA
B21: chr1:111147767:111147876:+|CDS|ENSG00000134255|unk|total|mutant (ssRNA)
RNA: GGGAGUUCUACAGUCCGACGAUCAUUAAAUAAAUUGUUUCAGUUACCAACACCACCAUUGUCAAGACACCAACUAAAGCGGCCCGAAGAACACAGAUAUCAAAGUGCUGGACGGUCCCUGCUUGAGCCCUUAAUGCAAGGGUACAACAGAGGAUUGAGCAUCA
B22: chr21:36896991:36897096:-|CDS|ENSG00000159267|unk|FALSE|bound_elsewhere (ssRNA)
RNA: GGGAGUUCUACAGUCCGACGAUCCAGUGGCUUGGGAAACAUGUGGACUCCGAGGGAGAAAUAAAAUCCGGCCAGCUCUCUCUUAGAUUUGUUUCAUCCUACGUGUCUGAAGUAGAAAUAACCCCAUCUUGUAUACCUGUGGUGCAACAGAGGAUUGAGCAUCA

Target: MSI1 full-length (mouse, UniProt Q61474 1-362)
Test: nsRBNS (natural sequence RNA bind-n-seq); RBNS binding buffer (assumed for nsRBNS): 25 mM Tris pH 7.5, 150 mM KCl, 3 mM MgCl2, 0.01% Triton X-100, 500 ug/ml BSA, 20 U/ml SUPERase-In, 4 C; UNK is unkempt and MSI1 is Musashi-1; names of the RNAs are library labels; protein concentration not given here; high values mean tight binding

UniProt Q61474, sequence (Q61474 whole entry): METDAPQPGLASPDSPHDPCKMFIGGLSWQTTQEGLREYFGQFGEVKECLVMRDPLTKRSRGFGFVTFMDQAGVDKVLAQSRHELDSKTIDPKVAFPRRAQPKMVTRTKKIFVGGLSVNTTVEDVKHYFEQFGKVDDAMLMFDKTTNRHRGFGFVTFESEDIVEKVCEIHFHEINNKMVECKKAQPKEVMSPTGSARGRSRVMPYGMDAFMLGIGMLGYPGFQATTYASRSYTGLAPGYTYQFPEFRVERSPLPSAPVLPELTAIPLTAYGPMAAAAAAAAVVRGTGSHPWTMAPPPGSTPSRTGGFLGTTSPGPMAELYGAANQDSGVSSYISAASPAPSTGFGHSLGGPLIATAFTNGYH

Binder	binding signal [enrichment R]
B1	0.635
B2	1.44
B3	2.78
B4	0.269
B5	0.42
B6	25
B7	0.346
B8	0.663
B9	0.509
B10	0.602
B11	0.792
B12	9.94
B13	0.817
B14	5.81
B15	0.321
B16	1.15
B17	0.412
B18	1.23
B19	0.346
B20	0.414
B21	0.854
B22	0.721
